Article PMC4336329 (PLoS ONE, 2015)
The whole screen tested about 310,000 compounds, of which about 14,000 (4.5%) showed an effect of 50% or more. Effects have a minus sign here. The list shows a part of the results.

target: human ether-à-go-go-related gene (hERG) potassium channel (human, UniProt Q12809); assay: primary screen, population patch clamp on CHO cells stably expressing hERG
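Further: peak tail current of the secondary pulse compared with the same well before compound.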

Chain of human ether-à-go-go-related gene (hERG) potassium channel (Q12809 whole entry, looked up): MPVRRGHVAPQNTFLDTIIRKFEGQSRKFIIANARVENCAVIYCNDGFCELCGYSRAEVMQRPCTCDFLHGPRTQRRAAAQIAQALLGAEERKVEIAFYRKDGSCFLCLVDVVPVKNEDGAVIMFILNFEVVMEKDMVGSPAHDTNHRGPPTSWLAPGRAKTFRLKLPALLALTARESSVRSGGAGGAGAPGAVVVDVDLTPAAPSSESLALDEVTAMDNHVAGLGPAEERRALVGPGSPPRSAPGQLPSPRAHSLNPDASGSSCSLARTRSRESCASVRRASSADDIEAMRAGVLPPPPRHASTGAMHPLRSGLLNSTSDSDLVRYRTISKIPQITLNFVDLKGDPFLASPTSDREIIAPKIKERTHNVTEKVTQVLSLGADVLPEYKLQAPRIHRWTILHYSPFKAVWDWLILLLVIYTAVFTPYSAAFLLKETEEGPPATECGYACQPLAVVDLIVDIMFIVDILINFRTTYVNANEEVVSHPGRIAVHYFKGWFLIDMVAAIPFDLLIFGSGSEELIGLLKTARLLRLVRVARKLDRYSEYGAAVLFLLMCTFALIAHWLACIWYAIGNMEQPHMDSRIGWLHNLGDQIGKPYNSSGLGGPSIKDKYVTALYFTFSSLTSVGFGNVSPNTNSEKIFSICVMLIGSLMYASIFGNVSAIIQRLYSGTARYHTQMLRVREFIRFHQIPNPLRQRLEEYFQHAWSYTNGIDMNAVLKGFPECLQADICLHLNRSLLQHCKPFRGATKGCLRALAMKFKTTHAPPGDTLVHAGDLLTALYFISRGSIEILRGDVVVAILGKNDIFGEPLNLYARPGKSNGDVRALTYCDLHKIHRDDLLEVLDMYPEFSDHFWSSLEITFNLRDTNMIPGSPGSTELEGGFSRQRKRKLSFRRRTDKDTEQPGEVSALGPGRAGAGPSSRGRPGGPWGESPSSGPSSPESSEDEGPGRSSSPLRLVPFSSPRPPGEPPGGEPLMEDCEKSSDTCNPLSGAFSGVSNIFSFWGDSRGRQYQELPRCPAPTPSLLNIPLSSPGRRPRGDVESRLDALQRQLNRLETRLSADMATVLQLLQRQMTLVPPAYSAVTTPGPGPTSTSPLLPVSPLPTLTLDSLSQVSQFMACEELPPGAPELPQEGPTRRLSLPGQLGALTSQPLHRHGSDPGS

Structure (SMILES) | hERG current change (%, negative = inhibition) at 10uM
COc1ccc(/C=N/NC(N)=S)cc1OC(=O)c1cccc2ccccc12 | 1.42%
CC(=O)N1CCN(S(=O)(=O)c2cccc(C(=O)OCC(=O)N(CCC#N)c3ccc(F)cc3)c2)CC1 | 9.96%
COc1cccc(CN2CC(C(=O)NCCn3ccc(C)n3)CCC2=O)c1 (stereo not drawn) | 0.915%
CN(C)CCCNC(=O)c1ccccc1Oc1ccccc1 | -23.4%
Cc1csc2nc(CNC(=O)c3cccc(C(F)(F)F)c3)cn12 | -21.3%
CC(C)NS(=O)(=O)c1ccc(OCC(=O)N2CCCC2)c(Cl)c1 | -1.74%
Cc1cccc(C)c1N1CC(=O)N(c2c(C)cccc2C)CC1=O | -1.91%
Cc1nc2sc3c(NCc4ccco4)ncnc3c2c2c1COC(C)(C)C2 | 11%
C=CCN(c1ccccc1)S(=O)(=O)c1cccc(C(=O)Nc2nc3ccccc3[nH]2)c1 | 15.6%
O=C(NC(=S)Nc1ccc2[nH]c(=O)[nH]c2c1)c1cncc(Br)c1 | 5.93%
CCCc1cc2c(=O)c(-c3ccc4c(c3)OCCO4)coc2cc1OS(C)(=O)=O | 23.4%
COc1ccc(-c2cc(=Nc3ccc(C)cc3)c3ccccc3o2)cc1 | 5.87%
O=C(Nc1ccc(Br)cc1Cl)c1ccc2c(=O)n3c(nc2c1)CCC3 | -26.1%
Cc1ccc(S(=O)(=O)CCC(=O)N2CCN(c3ccccc3F)CC2)cc1 | -12.2%
CC(C)CC(NC(N)=O)C(=O)Nc1cccc([N+](=O)[O-])c1 (stereo not drawn) | -0.263%
Cc1ccccc1NC(=O)CN(C)S(=O)(=O)c1cccc2cccnc12 | -6.84%
COc1ccc(NC(=O)c2ccc(CN(c3cc(Cl)ccc3C)S(=O)(=O)c3ccccc3)cc2)cc1OC | 0.171%
O=C(CSc1n[nH]c(-c2ccccn2)n1)Nc1cccc(Cl)c1 | -0.85%
Cc1cc(C)n(-c2nnc(C)n2/N=C/c2ccccc2OCc2ccccc2Cl)n1 | -28.2%
O=C(O)c1cc(N/N=C/c2cccs2)ccc1Cl | 11.6%
OCCCn1c(C2CCCN2c2nc(-c3ccc(F)cc3)cs2)nc2cc(Cl)c(N3CCCCC3)cc21 (stereo not drawn) | 11.8%
CCOc1ccc(Br)cc1S(=O)(=O)NC1CC(C)(C)NC(C)(C)C1 | 13.1%

Structure (SMILES) | hERG current change (%, negative = inhibition) at 10uM
C=CCc1cc(C=O)cc(OC)c1OCc1ccc(Cl)cc1 | 2.79%
CCS(=O)(=O)NC(C)C(c1cccs1)N1CCN(c2ccc(OC)cc2)CC1 (stereo not drawn) | -7.31%
Cc1cccc(-n2ncc3c(N4CCc5ccccc54)ncnc32)c1 | 19.8%
CCCOc1cccc(C(=O)Nc2cc(NC(=O)c3ccco3)ccc2OC)c1 | -81.2%
CCOc1ccccc1NC(=O)C(=O)N/N=C/c1cc(Br)ccc1O | 16.2%
C=CC12C=CC=CN1C(C(=O)OC)=C(C(=O)OC)C(C(=O)OC)=C2C(=O)OC (stereo not drawn) | 0.682%
CC1(NC(=O)Cc2c(Cl)cccc2Cl)CCS(=O)(=O)C1 (stereo not drawn) | 4.62%
COC(=O)c1ccc(SC2CCCCC2)c([N+](=O)[O-])c1 | 34.7%
CCCNC(=O)CS(=O)Cc1nc(-c2ccc(OC)cc2)oc1C (stereo not drawn) | -2.48%
Cc1cc(-c2cc(C(=O)NCc3ccccc3)on2)nc(NCC2CC2)n1 | 11.6%
CC1CCN(S(=O)(=O)c2ccc(C(=O)NCc3ccc4c(c3)OCO4)cc2)CC1 | -6.57%
CC1=CCC2([N+](=O)[O-])CN(CC(=O)O)CC1([N+](=O)[O-])C2 (stereo not drawn) | -10.2%
O=C(NC1CCCc2ccccc21)c1cccc(Br)c1 (stereo not drawn) | 0.874%
COc1ccc(NC(=O)CN(C)C(=O)Cn2cnc3c2c(=O)n(C)c(=O)n3C)cc1 | 0.754%
COc1cc(NC(=O)c2ccccc2)c(OC)cc1NC(=O)CN1CCOCC1 | -7.18%
COc1ccc(CCN2C(=O)CS/C2=N/NC(=O)c2ccccc2F)cc1OC | 23.6%
O=C(NC(=S)NNC(=O)c1ccco1)c1ccc(F)cc1 | 20.3%
C[n+]1cc[nH]c1SCC(=O)c1ccccc1.[Br-] | 4.16%
CCCNC(=O)c1nn2c(C(F)(F)F)cc(-c3ccccc3)nc2c1Cl | -4.1%
COc1cc(CNCCc2ccc(F)cc2)ccc1OCc1ccc(Cl)nc1.Cl | -68.2%
CC1COc2ccccc2N1C(=O)c1ccc(Cl)nc1 (stereo not drawn) | -4.07%
S=c1[nH]nc(-c2ccc(Cl)cc2)n1CCCN1CCOCC1 | 9.41%

Structure (SMILES) | hERG current change (%, negative = inhibition) at 10uM
COc1ccc(-n2nc3c(N4CCC(C(=O)NCc5cccc(C)c5)CC4)nnc(C)c3c2C)cc1 | -8.52%
COc1cc2c(cc1OC)CN(CC(=O)Nc1ccc(Cl)c(S(=O)(=O)N(C)C)c1)CC2 | -19.3%
COc1cc(OC)c(C(=O)OCC(=O)c2cc(C)n(CC3CCCO3)c2C)cc1OC (stereo not drawn) | 13.3%
CCCCC[C@H]1CN(C2CCCCC2)C(=O)[C@@H]1CC(=O)NCc1ccc(OC)cc1 | -67.4%
O=C(Cc1cccc(C(F)(F)F)c1)N1CCCC1 | 23.4%
O=C(CSc1ncn[nH]1)c1cc2ccccc2o1 | 22.3%
O=C(Nc1ccc(S(=O)(=O)N2CCCC2)cc1)C1CCN(S(=O)(=O)c2ccc(F)cc2)CC1 | 12.9%
O=C(NCc1ccco1)C(c1ccccc1)N(C(=O)Cc1cccs1)c1cccnc1 (stereo not drawn) | -13.8%
CC(=O)Nc1ccc(N2C(=O)CC(N3CCN(Cc4ccc5c(c4)OCO5)CC3)C2=O)cc1 (stereo not drawn) | 1.61%
COc1cc([N+](=O)[O-])ccc1NC(=O)C[n+]1cccc(C(C)=O)c1.[Cl-] | 25.5%
CC1CCCCC12NC(=O)N(CC(=O)Nc1ccccc1N1CCOCC1)C2=O (stereo not drawn) | 6.07%
O=C(C1CC1)N1N=C(c2cccc(Br)c2)CC1(O)C(F)(F)F (stereo not drawn) | 5.01%
Cc1cc(Cl)ccc1OCC(O)CNCCc1ccc(S(N)(=O)=O)cc1 (stereo not drawn) | -67.6%
COc1ccc(NCC(=O)n2c(C)c(C)c3ccccc32)cc1 | 1.56%
O=C(/C=C/c1ccccc1)c1ccccc1 | 11.3%
COc1ccccc1NC(=O)C1CCCN1C(=O)Nc1ccc(F)cc1 (stereo not drawn) | 4.61%
COc1ccc(NC(=O)c2ccc3c(c2)CCN3S(=O)(=O)c2ccccc2)c(OC)c1 | 11.8%
CCn1c(C)nc2cc(S(=O)(=O)Nc3ccc(C)cc3)ccc21 | -3.26%
COc1cc(C(=S)N2CCOCC2)ccc1O | 29.3%
Cc1cc(NC(=O)COC(=O)C2CCN(S(=O)(=O)c3c(Cl)cccc3Cl)CC2)no1 | -22%
COc1ccccc1-c1cc(N)n[nH]1 | 26.7%
COc1ccc(S(=O)(=O)c2ccc(OC)cc2)cc1 | -12.5%

Structure (SMILES) | hERG current change (%, negative = inhibition) at 10uM
CCCN1C(=O)/C(=C/c2ccco2)SC1=Nc1ccc(OC)cc1 | -12.7%
COc1ccc(CCNC(=O)C2CCCN(C(=O)c3ccc(Cl)cc3)C2)cc1 (stereo not drawn) | -17.2%
CCOc1ccc(CCNC(=O)COC(=O)c2nccnc2N)cc1OCC | 4.86%
CC(=O)c1c(C)[nH]c(C(=O)OCC(=O)NCC(C)C)c1C | -3.44%
Cc1cc(NC(=O)C(Cl)(Cl)Cl)no1 | 12.7%
CCC(C)C(NC(=O)CCC(=O)OCC(=O)[C@@]1(O)CCC2[C@@H]3CCC4=CC(=O)C=C[C@]4(C)C3[C@@H](O)C[C@@]21C)C(=O)O (stereo partly drawn) | 19.1%
CCCCSc1nc2ccccc2[nH]1 | 6.14%
COc1ccc(C/C(N)=N/OC(=O)c2ccco2)cc1OC | 20.4%
Cc1ccc(C(=O)C(C)OC(=O)CCS(=O)(=O)c2ccc(C)cc2)cc1 (stereo not drawn) | -6.15%
COCc1cc(C)nc(N2CCN(c3ccccc3)CC2)c1C#N | -13.7%
Cc1onc(-c2ccccc2)c1NC(=O)N(Cc1ccccc1)C(C)C | 11.8%
Cc1ccc(CNC(=S)N(C)C)cc1 | 8.38%
O=C(CCCC(=O)OCC(Cl)=C(Cl)Cl)Nc1ccccc1 | -2.93%
O=S(=O)(NCC1CCCO1)c1ccc(S(=O)(=O)N(Cc2ccccn2)C2CC2)cc1 (stereo not drawn) | -13.8%
CCCc1ccc(C(=O)/C=C/N(C)C)cc1 | -11.4%
CC1CCN(c2ccccc2NC(=O)c2ccc(Br)o2)CC1 | -0.73%
Cc1ccc(OCCNC(=O)c2ccccc2OCc2c(C)noc2C)cc1 | 19.3%
Cc1ccc(C)c(N(C)S(=O)(=O)c2ccc3c(c2)oc(=O)n3C)c1 | 9.12%
Cc1cccc(NC(=O)C2CCCN(S(=O)(=O)c3c(C)nn(C)c3C)C2)n1 (stereo not drawn) | 5.85%
O=C(O)c1ccc(/C=N/NC(=O)c2ccc(CN3c4cccc5cccc(c45)S3(=O)=O)cc2)cc1 | 21.7%
O=C(CSc1nnnn1C1CCCCC1)N1CCN(C(=O)c2ccco2)CC1 | 1.08%
